Reference: PubChem BioAssay AID588342 (National Center for Advancing Translational Sciences (NCATS), 2011)
The campaign covered roughly 360,000 compounds. About 25,000 (6.9%) were called active. Inconclusive results, whose numbers are uncertain, are shown with a selection of clear calls. Calls follow the shape of the dose curve; as a rule, active = well fitted inhibition curve with a large enough effect; inconclusive = small, poorly fitted or top-dose-only effect; inactive = flat fitted curve, though single readings scatter. Where the call is inconclusive, the potency comes from a doubtful curve fit.

biological target: Luciferin 4-monooxygenase (Photinus pyralis) (UniProt P08659); experiment: qHTS profiling assay for firefly luciferase inhibitor/activator using purifed enzyme and Km concentrations of substrates (counterscreen for miR-21 project); details: purified FLuc, luminescence inhibition; series mostly up to 57.5 µM; also: nearly all actives have a fitted effect of over 55% in size;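 as to activity change, negative = inhibition: plate controls were vehicle for no effect and reference inhibitor for full effect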
Procedure, shortened: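 Biochemical qHTS of compounds, final roughly 60 µM downward over six points, against 10 nM purified firefly luciferase using Km concentrations of substrates (10 uM D-luciferin, 10 uM ATP) in Tris acetate pH 7.5 buffer; luminescence output.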
Potency is read from the fitted curve at half-maximal effect; tags tell the direction and shape of the fitted curve.

Sequence of UniProt P08659 (P08659 whole entry, looked up): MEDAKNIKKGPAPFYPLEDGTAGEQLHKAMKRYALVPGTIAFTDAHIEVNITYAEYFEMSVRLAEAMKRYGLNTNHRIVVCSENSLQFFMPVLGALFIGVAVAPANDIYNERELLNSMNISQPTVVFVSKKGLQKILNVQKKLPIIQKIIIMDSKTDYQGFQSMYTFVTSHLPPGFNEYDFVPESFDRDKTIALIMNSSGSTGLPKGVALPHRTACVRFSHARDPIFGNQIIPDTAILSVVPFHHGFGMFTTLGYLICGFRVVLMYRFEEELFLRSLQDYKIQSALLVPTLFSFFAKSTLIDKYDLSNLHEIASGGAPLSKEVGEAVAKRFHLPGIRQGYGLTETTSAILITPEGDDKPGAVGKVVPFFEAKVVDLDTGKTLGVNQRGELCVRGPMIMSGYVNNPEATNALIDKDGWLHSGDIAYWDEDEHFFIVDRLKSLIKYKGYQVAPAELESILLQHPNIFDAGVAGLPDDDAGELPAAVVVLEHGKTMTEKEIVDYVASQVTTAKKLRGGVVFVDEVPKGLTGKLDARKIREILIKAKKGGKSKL

Compound | Potency | activity change, negative = inhibition
COc1ccc(CCNC(=O)CSc2nc3sc(C(=O)O)c(C)c3c(=O)[nH]2)cc1OC | inactive | 
NC(=O)c1cc(-c2csc(NCCc3ccccc3)n2)ccc1O | inconclusive: 23.9 µM [inhibitor, single point] | 
COc1ccc(OCc2cccc(C(=O)N3CCCC3)c2)cc1 | active: 8.49 µM | 
COc1ccc(OCCNC(=O)c2ccccc2OCC(=O)Nc2ccc(NC(C)=O)cc2)cc1 | inconclusive: 6.75 µM [inhibitor, partial curve, poor fit] | 
COc1cccc(C(=O)NCCSc2ccc(F)cc2)c1 | active: 19 µM | 
Cc1ccc(Cl)cc1NS(=O)(=O)c1ccc(N2CCCCS2(=O)=O)cc1 | inactive | 
CCCCn1cnc2c(cnn2-c2ccc(Cl)cc2)c1=O | inconclusive: 3.38 µM [inhibitor, full curve] | 
COc1ccc2nc(NC(=O)c3cc(=O)c4cc(C)c(C)cc4o3)sc2c1 | inactive | 
Cc1ccc2occ(/C=C/C(=O)c3ccccc3O)c(=O)c2c1 | inconclusive: 1.9 µM [inhibitor, full curve] | 
Cc1nc2nc(SCc3ccccc3)[nH]n2c(=O)c1C | inconclusive: 37.9 µM [inhibitor, single point] | 
Cc1ccc(C(=O)NCC(c2cccnc2)N2CCc3ccccc3C2)cc1C (configuration not stated) | active: 2.69 µM | 
Nc1cc(Cl)ccc1C(=O)OCC(=O)N1CCCC1 | inconclusive: 21.3 µM [inhibitor, partial curve, poor fit] | 
Cc1ccc(C(=O)N2CCN(c3ccccc3)CC2)cc1S(=O)(=O)N1CCCC1 | inactive | 
COC(=O)c1sc(NC(=S)NC(=O)c2ccc(C)cc2)nc1C | inconclusive: 6.75 µM [inhibitor, full curve] | 
COc1ccc(S(=O)(=O)NNC(=O)C(=O)NNc2ccccn2)cc1 | inactive | 
COc1ccc(C(=O)Nc2cc(OC)nc(OC)n2)cc1 | active: 4.26 µM | 
O=C(C1CCN(c2ncnc3c2sc2cccc(F)c23)CC1)N1CCOCC1 | inconclusive: 37.9 µM [inhibitor, partial curve, poor fit] | 
CC(C)(C)c1ccccc1NC(=O)c1c(O)c2cccc3c2n(c1=O)CC3 | inconclusive: 37.9 µM [inhibitor, partial curve, poor fit] | 
Cc1ccc(-c2cc(C(F)F)nc(N3CCOCC3)n2)cc1 | inactive | 
CCC1CCCCN1C(=O)c1cc(-c2ccc(Cl)c(Cl)c2)on1 (configuration not stated) | active: 19 µM | 
CCn1cc(C(=O)NCC(=O)NCCCN2CCOCC2)c(=O)c2cc3c(cc21)OCO3 | inactive | 
Cc1ccc(CSc2nnc(NC(=O)Cn3cnc4ccccc4c3=O)s2)cc1 | inconclusive: 30.1 µM [inhibitor, partial curve, poor fit] | 
Cc1nn(-c2ccccc2)c2sc(C(=O)Nc3cccc(Br)c3)cc12 | inactive | 
Nc1ccc(NC(=O)c2cccs2)c(Cl)c1 | inconclusive: 19 µM [inhibitor, partial curve, poor fit] | 
Cc1ccc(-n2nnc3ccccc3c2=O)cc1C |  | inactive: 1.69% [at 2.3 µM]
CCSc1ncnc2c1oc1ccccc12 | inconclusive: 30.1 µM [inhibitor, single point] | 

Compound | Potency | activity change, negative = inhibition
O=C(COc1ccccc1Cl)Nc1ccc2c(c1)OCO2 | active: 3.38 µM | 
CC(=O)c1cccc(NC(=O)CSc2ccc(-c3ccco3)nn2)c1 | active: 23.9 µM | 
O=C(Cn1cnc2ccccc2c1=O)c1ccccc1 | inconclusive: 23.9 µM [inhibitor, partial curve, poor fit] | 
COc1cccc2cc(C(=O)NCc3ccccc3Cl)c(=O)oc12 | inconclusive: 3.79 µM [inhibitor, partial curve, poor fit] | 
O=C(Nc1cccc(-c2ccc(N3CCOCC3)nn2)c1)c1ccccc1Cl | active: 1.69 µM | 
CCc1nc(NCc2ccccn2)c2oc3ccccc3c2n1 | inconclusive: 37.9 µM [inhibitor, partial curve, poor fit] | 
COc1cc(C(=O)Nc2ccc(S(=O)(=O)Nc3cnc4ccccc4n3)cc2)cc(OC)c1OC | inactive | 
Cc1ccc(C(=O)Nc2ccnc(-c3ccncc3)n2)cc1 | inconclusive: 23.9 µM [inhibitor, single point] | 
Cc1cccnc1CCNC(=O)c1ccc(OC2CCN(Cc3ccccn3)CC2)cc1 | inconclusive: 16.9 µM [inhibitor, partial curve] | 
Cc1cccc(C(=O)NCCC(=O)NCc2ccccc2Cl)c1 | inactive | 
Cn1nnnc1SCC(=O)Nc1nc2c(s1)CCCC2 | active: 12 µM | 
CCCCOc1ccc(C(=O)Nc2nc3c(s2)CC(C)CC3)cc1 (configuration not stated) | inactive | 
CCn1nnnc1SCC(=O)Nc1nc2ccccc2s1 | inconclusive: 33.8 µM [inhibitor, partial curve, poor fit] | 
CCOC(=O)c1ccc(NC(=O)CSc2nnc(C3CC3)n2C)cc1 | inconclusive: 37.9 µM [inhibitor, partial curve, poor fit] | 
CN1CCN(C(=O)c2cc(C(C)(C)C)cc(C(C)(C)C)c2)CC1 | inactive | 
CCOC(=O)CN1C(=O)/C(=C/c2cccc(Br)c2)Oc2ccccc21 | inconclusive: 12 µM [inhibitor, partial curve, poor fit] | 
CC(C)N(Cc1nnc(-c2ccc(Cl)cc2)o1)C(=O)C1=COCCO1 | inactive | 
CCOc1cc(/C=N/NC(=O)c2ccc3c(c2)OCCO3)cc(Br)c1O | active: 21.3 µM | 
Cc1ccc(NC(=O)c2ccc(-n3cccn3)c([N+](=O)[O-])c2)cc1C | inconclusive: 23.9 µM [inhibitor, partial curve] | 
Nc1c(NCc2ccccc2)c2ccccc2oc1=O | inactive | 
CCOC(=O)CC1COCCN1C(=O)c1ccc2oc(Cc3ccccc3)nc2c1 (configuration not stated) | active: 12 µM | 
COc1ccc(NC(=O)CC2C(=O)N(c3ccc(C)cc3)C(=O)N2Cc2ccc(C)cc2)cc1 (configuration not stated) | inactive | 
CCOCCn1c2ccccc2c2nc3ccccc3nc21 | inconclusive: 33.8 µM [inhibitor, single point] | 
COc1ccc(C(=O)COC(=O)CCC(=O)c2cccs2)cc1 | inconclusive: 37.9 µM [inhibitor, single point] | 
Cc1cccc(N2CCN(C(=O)CSCc3c(C)noc3C)CC2)c1C | inconclusive: 33.8 µM [inhibitor, partial curve, poor fit] | 
O=C(N/N=C/c1ccc(O)c(O)c1)C1c2ccccc2Oc2ccccc21 | inactive | 

Compound | Potency | activity change, negative = inhibition
Cc1c(NC(=O)CSc2ccc(Cl)cc2)cccc1-c1nc2cc(Cl)ccc2o1 | inconclusive: 23.9 µM [inhibitor, partial curve, poor fit] | 
CCOc1ccc2[nH]c3c(N4CCC5(CC4)OCCO5)ncnc3c2c1 | inconclusive: 37.9 µM [inhibitor, single point] | 
Cc1cccc(Nc2nc(-c3ccc(F)c(C)c3)cs2)n1 | active: 6.01 µM | 
COc1ccc(-c2csc(Nc3ccc(S(=O)(=O)Nc4cc(C)on4)cc3)n2)cc1 | inconclusive: 37.9 µM [inhibitor, single point] | 
C[C@@H]1CC[C@@]23COC(=O)C2=CCC[C@@H]3[C@@]1(C)CC/C(=C/CO)CO | inactive | 
COc1cc2c(cc1OC)C(c1ccccc1)N(C(=O)C(C)(C)C)CC2 (configuration not stated) | inactive | 
COC(=O)c1ccc(NC(=O)CSc2n[nH]c(-c3ccncc3)n2)cc1 | inconclusive: 21.3 µM [inhibitor, single point] | 
Cc1ccc(NC(=O)CCCn2nc(C)c3sc4ccccc4c3c2=O)c(Cl)c1 | active: 6.01 µM | 
CCC(C(=O)Nc1cccc(C#N)c1)n1nc(-c2ccccc2)ccc1=O (configuration not stated) | inactive | 
Cc1cc2ncc(C(=O)N=CN(C)C)cn2n1 | inactive | 
COc1ccc(C(CNC(=O)c2ccc(-c3nc4ccccc4s3)o2)N2CCCC2)cc1 (configuration not stated) | active: 19 µM | 
Cc1ccc(CNc2ccc3c(c2)ncn3C)cc1 | active: 12 µM | 
COc1ccc(/C=C/C(=O)c2cc(F)ccc2OC(=O)c2ccc(OC)c(OC)c2)cc1OC | inactive | 
CCCc1ccc(-c2ccc(/C=C/C(=O)O)cc2)nc1 | active: 0.536 µM | 
Cc1ccccc1NC(=O)C(=O)Nc1ccccc1C | inconclusive: 0.601 µM [inhibitor, full curve] | 
N/C(=N\N=C\c1ccc2c(c1)OCO2)SC1CC(=O)N(c2ccc(C(=O)O)cc2)C1=O (configuration not stated) | inconclusive: 19 µM [inhibitor, partial curve] | 
O=c1cc(-c2ccc([N+](=O)[O-])cc2)nc2cc(-c3ccc(F)cc3)[nH]n12 | inconclusive: 37.9 µM [inhibitor, single point] | 
CCSc1nnc(NC(=O)/C=C/c2ccc3c(c2)OCO3)s1 | inconclusive: 0.757 µM [inhibitor, partial curve, poor fit] | 
COc1ccc(CCC(=O)Nc2cccc(S(=O)(=O)N3CCCCCC3)c2)cc1 | inconclusive: 30.1 µM [inhibitor, partial curve, poor fit] | 
O=C(Nc1ccc2c(c1)OCO2)c1cc(-c2cccc(O)c2)on1 | active: 2.13 µM | 
Cc1ccc(Nc2nc(C)c(NC(=O)c3ccc(C)cc3)c(Nc3ccc(C)cc3)n2)cc1 | inactive | 
CCC(=O)Nc1cc(-c2nc3ccccc3s2)c(Cl)cc1Cl | inactive | 
COc1ccc(-c2csc(NC(=O)C3=COCCO3)n2)cc1OC | inconclusive: 26.9 µM [inhibitor, partial curve, poor fit] | 
COc1ccc(NC(=O)c2oc3ccccc3c2NC(=O)COc2ccc(F)cc2)c(OC)c1 | inactive | 
Cn1c(=O)n(C)c2cc(NS(=O)(=O)c3ccc(C(C)(C)C)cc3)c(NCc3ccccc3)cc21 | inconclusive: 15.1 µM [inhibitor, partial curve] | 
